These results are taken from the supplement of paper PMC5499739.

Whole data set: some 16,000 sequences, median “Z-score” near -0.37, cut for the highest 2% near 3.2. The list shows a part of the results.

For this assay, the system named is RBM10 RRM1-ZnF (GST-tagged construct). Kind of assay: RNAcompete 7-mer binding Z-score; higher = stronger binding preference. The gist of the method: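 Each heptamer motif was given a one-sided Z-score for enrichment across the probes that contained it. GST-tagged RBM10 constructs (20 pmol) were combined with 1.5 nmol of a designed pool of 241 399 RNAs of up to 41 nt, transcribed from microarray-derived DNA templates. Binding took place in 1 ml Hepes pH 7.8 buffer containing KCl, NaCl, glycerol, DTT, BSA and glutathione Sepharose beads for 30 min at 4°C. After four 2-min washes at 4°C, bound RNA was identified by microarray hybridisation.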
Regarding AGAUUUU, the “RNAcompete 7-mer binding Z-score” value is -0.594.
On to CCUUCAU, for which the “RNAcompete 7-mer binding Z-score” value is -0.896.
Regarding UGAGUUC, the “RNAcompete 7-mer binding Z-score” value was -0.451.
For the sequence UCUUCGA, the “RNAcompete 7-mer binding Z-score” value was -0.834.
Consider CUUGAGA, for which the “RNAcompete 7-mer binding Z-score” value was -0.506.
Turning to CUUCUCG, the “RNAcompete 7-mer binding Z-score” value is -0.678.
With UGCAGAC, the “RNAcompete 7-mer binding Z-score” value was -0.314.
Consider UAAAGUG, for which the “RNAcompete 7-mer binding Z-score” value stood at 0.17.
With UAGCUAC, the “RNAcompete 7-mer binding Z-score” value was -0.591.
As to UGCCUGU, the “RNAcompete 7-mer binding Z-score” value is -0.698.
Take CACGACC: the “RNAcompete 7-mer binding Z-score” value was -0.688.
GAGUGUU: the “RNAcompete 7-mer binding Z-score” value is 0.625.
The result for AACACAC reads -0.513.
As for CCCUCCU, the “RNAcompete 7-mer binding Z-score” value is -0.558.
Regarding CCAACAA, the “RNAcompete 7-mer binding Z-score” value was -0.73.
The result for GUUUAUC reads -0.513; that for UUUAAAC, -0.876.
The result for UCGGUCC reads -0.613.
GAUAUCU: the “RNAcompete 7-mer binding Z-score” value is -0.548.
Consider UCGAAGG, for which the “RNAcompete 7-mer binding Z-score” value was determined as 1.03.
Under UUGUGCU stands -0.392; under CAACACC, -0.503.
Take GAAGGUU: the “RNAcompete 7-mer binding Z-score” value is 2.87.
The result for CACUGCA reads -0.396; that for CACGUCC, -0.617; that for UGACGAA, 0.082.
The result for UCGAGCU reads -0.568.
Turning to GAGAGAA, the “RNAcompete 7-mer binding Z-score” value was determined as 0.745.
As for GUUUCUG, the “RNAcompete 7-mer binding Z-score” value is -0.171.
Consider AAUCACU, for which the “RNAcompete 7-mer binding Z-score” value is -0.444.
For AAUGGCU, the “RNAcompete 7-mer binding Z-score” value came to 0.303.
As for UGGGUCA, the “RNAcompete 7-mer binding Z-score” value came out at 1.78.
With GGCUAGC, the “RNAcompete 7-mer binding Z-score” value worked out at 0.319.
Under GUGUCUA stands -0.249; under AUGUCCU, -0.772.
For GUGCCGA, the “RNAcompete 7-mer binding Z-score” value is 0.017.
In the case of UCGAUAU, the “RNAcompete 7-mer binding Z-score” value is -0.626.
Consider GAGCAGA, for which the “RNAcompete 7-mer binding Z-score” value is 0.927.
Regarding AUGUUGA, the “RNAcompete 7-mer binding Z-score” value is -0.0674.
On to AAGAACA, for which the “RNAcompete 7-mer binding Z-score” value turned out to be 0.00729.
On to UACGGCG, for which the “RNAcompete 7-mer binding Z-score” value was -0.0187.
In the case of GAAGGCG, the “RNAcompete 7-mer binding Z-score” value came to 2.14.
With UCCAACC, the “RNAcompete 7-mer binding Z-score” value is -0.805.
Turning to CGCACAG, the “RNAcompete 7-mer binding Z-score” value is -0.269.
GAGAUCU: the “RNAcompete 7-mer binding Z-score” value was -0.425.
As for CCGUCGG, the “RNAcompete 7-mer binding Z-score” value is -0.0999.
Under GCGUCAA stands -0.126.
Turning to UUGCGGA, the “RNAcompete 7-mer binding Z-score” value was found to be 0.368.
On to AUCUUCG, for which the “RNAcompete 7-mer binding Z-score” value was -0.886.
UUCUGAA: the “RNAcompete 7-mer binding Z-score” value was -0.61.
Under UACCCCU stands -0.646; under CUAGUAG, -0.155.
Turning to AUUCUAC, the “RNAcompete 7-mer binding Z-score” value was -0.831.
The result for CUUAGGA reads 0.0333; that for GAGUGAC, 0.703.
Turning to CGCGUAG, the “RNAcompete 7-mer binding Z-score” value is -0.106.
In the case of CAUCCGU, the “RNAcompete 7-mer binding Z-score” value is -0.73.
In the case of GAGCAAA, the “RNAcompete 7-mer binding Z-score” value turned out to be 0.361.
For the sequence UCCCGUA, the “RNAcompete 7-mer binding Z-score” value is -0.678.
As for GCCAAGA, the “RNAcompete 7-mer binding Z-score” value was -0.428.
In the case of CCGCCUU, the “RNAcompete 7-mer binding Z-score” value is -0.769.
On to UCACGAA, for which the “RNAcompete 7-mer binding Z-score” value was -0.496.
As to CAAGUGU, the “RNAcompete 7-mer binding Z-score” value was -0.0382.
Under GCAGUAU stands -0.113.
Consider AGGUUUA, for which the “RNAcompete 7-mer binding Z-score” value was determined as 0.426.
In the case of AUUUAGU, the “RNAcompete 7-mer binding Z-score” value is -0.415.
For UGUAUGU, the “RNAcompete 7-mer binding Z-score” value turned out to be 0.069.
On to GUGUUCG, for which the “RNAcompete 7-mer binding Z-score” value is -0.23.
Take UACGCAA: the “RNAcompete 7-mer binding Z-score” value was -0.509.
Consider UUCGCCG, for which the “RNAcompete 7-mer binding Z-score” value was -0.6.
The result for CGUCGAU reads -0.191.
As for AGCAAUA, the “RNAcompete 7-mer binding Z-score” value is -0.152.
With AGACGAU, the “RNAcompete 7-mer binding Z-score” value is -0.204.
The result for GGGCCCG reads 0.14; that for CGGCGGC, 0.391; that for AUUCAGG, 0.235.
With CAAUGUG, the “RNAcompete 7-mer binding Z-score” value was 0.378.
Take AAGACGU: the “RNAcompete 7-mer binding Z-score” value was -0.0122.
For UCGAGCC, the “RNAcompete 7-mer binding Z-score” value is -0.629.
The result for GCAUCAU reads -0.415; that for AGAGAGU, 0.569.
On to CCCUACA, for which the “RNAcompete 7-mer binding Z-score” value is -0.789.
Consider UGCAACG, for which the “RNAcompete 7-mer binding Z-score” value was -0.132.
Under UAUAGAC stands -0.259; under CUUCCAA, -0.756; under CUACUCC, -0.779.
The result for GGAUGUU reads 0.959; that for UUGCGCG, -0.201; that for UGGCCAC, -0.405.
The result for ACUAUCA reads -0.694.
Take GGAUGUA: the “RNAcompete 7-mer binding Z-score” value was determined as 1.7.
On to AGUUUGC, for which the “RNAcompete 7-mer binding Z-score” value was -0.282.
